Test results: PubChem BioAssay AID720707 (National Center for Advancing Translational Sciences (NCATS), 2013)
About 270 (0.075%) of roughly 360,000 compounds were called active. The inconclusive results got no clear call from the source; some entries with a clear call stand among them for comparison. The call rests on the fitted dose curve; in most records, active means well fitted activation curve with a large enough effect; inconclusive means small, poorly fitted or top-dose-only effect; inactive means no such curve, though single readings can be large or run the other way. Potencies of inconclusive entries are left out as doubtful fits.

Each molecule was assayed against Rap guanine nucleotide exchange factor 3 (Homo sapiens) (UniProt O95398) (assay: qHTS for Agonist of cAMP-regulated guanine nucleotide exchange factor 3 (EPAC1): primary screen). Settings: biochemical assay; activation: at 154 µM (top of the series), 100% = response to 6.5 mM cAMP.
Sequence of UniProt O95398 (O95398 whole entry, looked up): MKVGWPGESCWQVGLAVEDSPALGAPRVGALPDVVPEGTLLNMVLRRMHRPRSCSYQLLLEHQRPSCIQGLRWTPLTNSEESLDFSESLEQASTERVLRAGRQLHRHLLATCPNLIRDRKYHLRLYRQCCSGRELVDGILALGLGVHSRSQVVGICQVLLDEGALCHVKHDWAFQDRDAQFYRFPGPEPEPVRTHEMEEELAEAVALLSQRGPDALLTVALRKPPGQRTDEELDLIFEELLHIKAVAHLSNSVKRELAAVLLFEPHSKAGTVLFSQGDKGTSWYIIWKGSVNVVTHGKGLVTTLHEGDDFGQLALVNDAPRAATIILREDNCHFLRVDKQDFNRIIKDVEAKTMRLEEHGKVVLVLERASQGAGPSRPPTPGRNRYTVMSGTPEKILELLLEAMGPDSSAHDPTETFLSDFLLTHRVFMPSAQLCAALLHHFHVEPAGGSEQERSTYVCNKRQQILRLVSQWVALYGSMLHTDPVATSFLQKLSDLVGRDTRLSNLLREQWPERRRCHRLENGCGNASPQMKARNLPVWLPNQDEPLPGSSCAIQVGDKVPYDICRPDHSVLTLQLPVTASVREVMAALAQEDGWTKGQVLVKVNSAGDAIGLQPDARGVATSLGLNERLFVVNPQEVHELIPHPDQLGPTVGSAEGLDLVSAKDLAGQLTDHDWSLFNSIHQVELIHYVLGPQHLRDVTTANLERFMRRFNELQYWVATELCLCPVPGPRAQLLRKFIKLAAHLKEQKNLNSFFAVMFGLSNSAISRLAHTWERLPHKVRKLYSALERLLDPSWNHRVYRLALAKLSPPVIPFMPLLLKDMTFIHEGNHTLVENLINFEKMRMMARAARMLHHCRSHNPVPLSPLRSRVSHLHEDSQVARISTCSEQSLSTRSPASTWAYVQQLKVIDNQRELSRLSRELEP
Outline: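 Read-out is the fluorescence drop as BODIPY-GDP leaves Rap1B (480 nm excitation, 540 nm emission), recorded every 5 minutes over 30 minutes. Reactions held 100 nM EPAC1, 250 nM Rap1B–BODIPY-GDP and 50 uM GDP, with 6.5 mM cAMP setting full activation.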
Further: nearly all actives have a fitted effect of over 60% in size.
Potency means the concentration at half of the fitted maximal effect; tags describe the fitted curve by direction and shape.

| Structure (SMILES) | Potency |
| --- | --- |
| CN1C=CC2=C(C#N)C(N)C(C#N)(C#N)[C@H](c3ccccc3)[C@H]2C1 (stereo partly specified) | inconclusive [activator, partial curve, poor fit] |
| COc1ccc(OCC(=O)Nc2c(C(=O)N(CCN(C)C)Cc3ccco3)oc3ccccc23)cc1 | inactive |
| O=C(O)c1ccccc1-c1c2cc(I)c(=O)c(I)c-2oc2c(I)c(O)c(I)cc12 | active: 28.2 µM |
| CC1(C(=O)NCc2ccccc2)CN(S(C)(=O)=O)CC(=O)N1CCc1ccc(O)cc1 (stereo unspecified) | inactive |
| CC1(C(=O)NS(=O)(=O)C2CC2)CCCN(C(=O)c2cc3ccccc3s2)C1 (stereo unspecified) | inactive |
| CCCCC1CCC(C(=O)Nc2ccc(S(=O)(=O)Nc3nccs3)cc2)CC1 (stereo unspecified) | inconclusive [activator, partial curve] |
| CSc1nnc(CSCc2ccc(Cl)cc2Cl)n1-c1ccccc1 | inconclusive [activator, partial curve] |
| COc1cccc(/C=C2\CCc3ccccc3C2=O)c1 | inactive |
| COc1ccccc1N1C(=O)C2C(C(=O)c3ccccc3)=NN(c3ccccc3)C2C1=O (stereo unspecified) | inconclusive [activator, partial curve, poor fit] |
| CCOc1ccc(CCNC(=O)COC(=O)COc2ccccc2C)cc1OCC | inconclusive [activator, partial curve] |
| O=C(NCCS(=O)(=O)N1CCc2ccccc2C1)c1ccccc1 | inconclusive [activator, single point] |
| COc1ccc(N2CCN(C(=O)COC(=O)c3ccc(C)o3)CC2)cc1 | inconclusive [activator, single point] |
| O=C(NCC(=O)N(CC1CCCO1)C(C(=O)NC1CCCC1)c1cccnc1)c1ccco1 (stereo unspecified) | inactive |
| CN1/C(=C\C=C2/SC(=S)NC2=O)C(C)(C)c2ccccc21 | active: 63.1 µM |
| CCN(CC)C(=O)c1sc2nc(-c3cccs3)cc(-c3cccs3)c2c1N | inactive |
| CC(C)(CNC(=O)Cc1ccc(NS(=O)(=O)c2cccc(C(F)(F)F)c2)cc1)N1CCOCC1 | inconclusive [activator, single point] |
| COC(=O)c1cc(NC(=O)Nc2cccc(Cl)c2)ccc1Cl | inconclusive [activator, partial curve] |
| NS(=O)(=O)c1ccc(CNC(=O)CCS(=O)(=O)Cc2ccccc2)cc1 | inactive |
| CCCCN1C(=O)/C(=C/C=C2\Oc3ccccc3N2CC)SC1=S | inconclusive [activator, partial curve] |
| CCc1ccc[n+](-c2[nH]c(=O)sc2/C=N/NC([S-])=Nc2ccccc2)c1 | inconclusive [activator, partial curve] |
| CCOC(=O)c1cnc(-n2nc(C)cc2C)nc1NCCc1ccccc1 | inactive |
| CSCCC(NC(=O)c1ccco1)c1nc2ccccc2[nH]1 (stereo unspecified) | inactive |
| Cc1cc2c(cc1C)-n1nnnc1C(N(Cc1ccccc1)Cc1ccccc1)C(=O)N2 (stereo unspecified) | inactive |
| O=C1NC(=O)C2(N1)C(=O)c1cccc3cccc2c13 (stereo unspecified) | active: 112 µM |

| Structure (SMILES) | Potency |
| --- | --- |
| Cc1cc(C(=O)CCC(=O)N2CCN(S(=O)(=O)c3ccccc3)CC2)c(C)s1 | inconclusive [activator, full curve, poor fit] |
| CCC(=O)NC(c1cccs1)c1cc(Cl)c2ccccc2c1O (stereo unspecified) | inactive |
| COc1ccc(CCNC(=O)c2nn(C)cc2Cl)cc1 | inactive |
| Oc1ccc(NCc2cccc(OCc3ccc(F)cc3)c2)cc1 | inactive |
| O=P(c1ccccc1)(c1ccccc1)c1cc(S(=O)(=O)O)ccc1O | inactive |
| COc1cc(Cn2c3ccc(NC(=O)CCc4ccc(O)cc4)cc3c(=O)n2C)ccc1F | inactive |
| CCc1nc2ccc(C(=O)N(C)Cc3ccco3)cn2c1N(C)CCCc1ccccc1 | inactive |
| O=C(CN1C(=O)N/C(=C\c2ccccc2OCc2ccc(C(=O)O)cc2)C1=O)Nc1ccccc1F | inactive |
| O=C(CCNC(=O)c1ccc(Br)cc1)Nc1ccccc1N1CCOCC1 | inconclusive [activator, full curve] |
| O=c1oc2c3c4c(cc2c(C(F)(F)F)c1CCN1CCOCC1)CCCN4CCC3 | inconclusive [activator, partial curve, poor fit] |
| COc1ccc(CCC(=O)N(C)CC(=O)Nc2ccc(Cl)c(C(F)(F)F)c2)cc1 | inconclusive [activator, partial curve] |
| CC(=O)NCCNC(=O)C1(C)Cc2c(-c3ccc(NC(C)=O)cc3)ccnc2O1 (stereo unspecified) | inactive |
| Nc1cccc(P(=O)(c2ccccc2)c2ccccc2)c1 | inactive |
| COC(=O)CCC(=O)OC1(C)C(=O)C2=CN(Cc3ccc(OC)cc3)C(c3ccc(OC)cc3)=CC2=C(Br)C1=O (stereo unspecified) | inactive |
| CC(C)(C)C1CCC(C(=O)NNC(=O)c2ccncc2)CC1 (stereo unspecified) | inconclusive [activator, single point] |
| N=C1/C(=C/c2ccc(-c3cccc(C(=O)O)c3)o2)C(=O)N=C2SC=C(c3ccccc3)N12 | inconclusive [activator, partial curve] |
| COc1ccccc1C(=O)NC(CCSC)C(=O)NCc1ccccn1 (stereo unspecified) | inconclusive [activator, single point] |
| Clc1ccc(CSc2nnc(-c3ccccn3)n2Cc2ccco2)c(Cl)c1 | inconclusive [activator, partial curve] |
| C=C(C)C(=O)OCC(=O)NCc1ccccc1 | inactive |
| CCN(CC)c1ccc2cc(C(=O)c3cccs3)c(=O)oc2c1 | active: 56.2 µM |
| CCN(CC)c1ccc(/C=C/C(=O)c2ccc(Br)cc2)cc1 | active: 100 µM |
| CCN(CC)CCn1c2c(c(SCC(=O)Nc3nc4ccccc4s3)nc1=O)CCCC2 | inconclusive [activator, partial curve] |
| N#C/C(=C\c1ccc(Sc2ccccc2)o1)c1nc2ccccc2[nH]1 | inconclusive [activator, partial curve] |
| CCOC(=O)C(=NC(C)CC)NNc1ccc(Br)cc1 (stereo unspecified) | inactive |

| Structure (SMILES) | Potency |
| --- | --- |
| COc1ccc(N2CCN(C(=O)CSc3ncn[nH]3)CC2)cc1 | inconclusive [activator, single point] |
| Cc1ccc(/C=C(\NC(=O)c2ccc(C)cc2)C(=O)NCCCn2ccnc2)cc1 | inactive |
| O=C(c1ccccc1)N1CCCC(c2ccc(Cl)cc2)=N1 | inconclusive [activator, partial curve] |
| O=C(N[C@@H]1CC[C@@H](CCNS(=O)(=O)c2ccc(Cl)cc2)O[C@@H]1CO)c1cccnc1 | inactive |
| Cc1cccc(NC(=O)c2ccc(-n3cncn3)c([N+](=O)[O-])c2)c1 | inconclusive [activator, single point] |
| Cc1ccc2nc(-c3ccncc3)cc(C(=O)Nc3ccc(F)cc3C)c2c1 | inconclusive [activator, partial curve] |
| COc1cc(NC(=S)N2CCN(S(=O)(=O)c3ccc(F)cc3)CC2)cc(OC)c1 | inconclusive [activator, partial curve] |
| Cn1cc(Br)c(C(=O)Nc2c(F)c(F)c(F)c(F)c2F)n1 | inactive |
| CCOC(=O)[C@]12CCCC=C1N(CCC1=CCCCC1)C(=O)[C@H](CC(=O)NCc1cccs1)C2 | inactive |
| CCOc1ccc(NC(=O)/C(C#N)=C/c2ccc(N3CCCC3)c(C)c2)cc1 | active: 112 µM |
| CCCCOc1ccc(C(=O)NCC(=O)N2CCN(Cc3ccc4c(c3)OCO4)CC2)cc1 | inconclusive [activator, single point] |
| Cc1cc(Cl)ccc1OCCCC(=O)N1CCN(S(=O)(=O)c2ccccc2)CC1 | inconclusive [activator, partial curve] |
| O=C(Nc1ccccc1F)c1ccc(C(=O)c2ccccc2)cc1 | inconclusive [activator, partial curve, poor fit] |
| CCOC(=O)CC1C(=O)NCCN1c1nc2c(C)cccn2c(=O)c1/C=C1\SC(=S)N(C(C)CC)C1=O (stereo unspecified) | inconclusive [activator, full curve, poor fit] |
| Cc1noc(C)c1COc1ccccc1C(=O)NCCc1ccc(Cl)cc1 | inconclusive [activator, partial curve] |
| Cc1ccc(S(=O)(=O)N2CCOC23CCN(S(=O)(=O)c2cccs2)CC3)cc1 | inconclusive [activator, partial curve] |
| COc1ccc(Cl)cc1C(=O)CSc1nnnn1C1CCCCC1 | inconclusive [activator, partial curve] |
| CCCC1NC(=O)c2cc3ccccc3cc2-n2c1nc1cc(F)ccc1c2=O (stereo unspecified) | inactive |
| COc1cc(C2c3c([nH]c(=O)[nH]c3=O)Nc3ccc4ccccc4c32)cc(OC)c1OC (stereo unspecified) | inconclusive [activator, partial curve] |
| CN(C(=O)CSc1nc2[nH]ncc2c(=O)[nH]1)c1ccccc1 | inconclusive [activator, full curve, poor fit] |
| CCCCc1ccc(S(=O)(=O)NC(=O)C2(C)CCN2C(=O)Cc2ccccc2)cc1 (stereo unspecified) | inactive |
| COc1ccc([N+](=O)[O-])cc1NC(=O)C(C)OC(=O)CSC(C)C(=O)Nc1cc(C)on1 (stereo unspecified) | inconclusive [activator, partial curve, poor fit] |
| O=C1OC(Oc2ccccc2)(c2ccccc2)c2ccccc21 (stereo unspecified) | inconclusive [activator, partial curve] |
